Reference: the supplement of paper PMC11417369
± gives the standard deviation of the averaged measurements. This is one part of the list.

Tested on: PfAP2-I AP2 domain 3 (GST-tagged)
Assay: gcPBM binding intensity (ln(normalized median fluorescence intensity)); higher = stronger DNA binding
Summary of the method: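 Using an Agilent 4 × 180k array, primer-extended double-stranded 36-bp intergenic genomic probes and negative controls were exposed for 1 h to GST-fused P. falciparum DNA-binding domains expressed in E. coli. Binding was carried out in 1× PBS with 1% milk, 0.2 mg/ml BSA, 0.5% salmon testes DNA and 0.03% Triton X-100, and protein was detected with Alexa488 anti-GST antibody and a 488 nm scan. Binding intensity is the highest Masliner-normalised natural-log median intensity across replicate spots of either probe orientation.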

How did the “gcPBM binding intensity (ln)” value turn out when “TAAATATATATATATTGTACAAAACAAATGTGAATT [XGTACX_site696]” was run?
The value was 8.09 ± 0.57.

Which “gcPBM binding intensity (ln)” value does the source give for “TTAAAAATATTATGTACACACATTTTAGATATTTGT [CACACA_site1846]” here?
The value was 7.71 ± 0.45.

Which “gcPBM binding intensity (ln)” value does the source give for “TAATTAAAATCATATACACACCCATATATATATATA [CACACA_site8524]” here?
Its value is 9.35 ± 0.33.

Which “gcPBM binding intensity (ln)” value does the source give for “TCCTAATATTTGTCAAATTTCAAAATAAATAAAATG [XGTACX_negctrl_site540]” here?
Its value is 7.52 ± 0.48.

“TTAAAAAAAAAAAAAAGTACATAAGTATATATAATA [XGTACX_site4295]” was tested. Which “gcPBM binding intensity (ln)” value did it give?
The value was 7.61 ± 0.57.

For “CATATTTTTTCTTAAACACACACATATATATATATA [CACACA_site8920]”, which “gcPBM binding intensity (ln)” value is on record?
Its value is 9.34 ± 0.38.

For “TATATATATATGTACACACACACATATAAATAAATA [CACACA_site443]”, which “gcPBM binding intensity (ln)” value is on record?
Its value is 9.19 ± 0.21.

For “TAAAAGGGGATATATGAACACACAAAAAAAAAATAT [CACACA_site8940]”, which “gcPBM binding intensity (ln)” value is on record?
The value was 7.97 ± 0.66.

How did the “gcPBM binding intensity (ln)” value turn out when “TAAATGTTTCTCAAAAGTACACATGTGATATTTCTT [XGTACX_site2065]” was run?
Its value is 7.73 ± 0.21.

With “ATATTAAGTTTTATTACACACTCTCAATTTTTATTT [CACACA_site4206]” as the sequence, how does the “gcPBM binding intensity (ln)” value read?
Its value is 8.06 ± 0.57.

“AATACAATAAAATAGTGTACATATATATTATGTATA [XGTACX_site8258]” was tested. Which “gcPBM binding intensity (ln)” value did it give?
Its value is 7.63 ± 0.27.

“ATATATATATATATTTGTACGTATTATGTATTTTTT [XGTACX_site3530]” was tested. Which “gcPBM binding intensity (ln)” value did it give?
Its value is 9.3 ± 0.16.

With “TTAAAATATGATATATGTACATAATTACTAAAAACA [XGTACX_site276]” as the sequence, how does the “gcPBM binding intensity (ln)” value read?
Its value is 8.11 ± 0.32.

For “GAATAAATTAAAAACGCATGTATCATTACTACATAA [TGCATGCA_site111]”, which “gcPBM binding intensity (ln)” value is on record?
The value was 7.36 ± 0.48.

How did the “gcPBM binding intensity (ln)” value turn out when “TTTATATTATACTATACATGCATATAATAAAGGTCA [TGCATGCA_site934]” was run?
The value was 7.8 ± 0.6.

With “AATAGAATAATCCTTACACACACACGCGCACGAATA [CACACA_site6365]” as the sequence, how does the “gcPBM binding intensity (ln)” value read?
The value was 8.03 ± 0.79.

How did the “gcPBM binding intensity (ln)” value turn out when “ATTTTATTTTTTTGTGATAATTGATTTATATATTGT [TGCATGCA_negctrl_site563]” was run?
Its value is 7.57 ± 0.54.

How did the “gcPBM binding intensity (ln)” value turn out when “TATATATTACATTGTTGTACATATATATTATATATA [XGTACX_site60]” was run?
Its value is 7.61 ± 0.3.

“ATTATTTCTTTGTGATGTACAAATAAACATGTTGGT [XGTACX_site5636]” was tested. Which “gcPBM binding intensity (ln)” value did it give?
The value was 7.86 ± 0.57.

“ATATATATTTCTTAAAGTACATAATAATAAAAATAT [XGTACX_site8981]” was tested. Which “gcPBM binding intensity (ln)” value did it give?
The value was 7.79 ± 0.44.

For “AAAGCACCCAGGCACACACACAAAGGAAAAGAAAAA [CACACA_site232]”, which “gcPBM binding intensity (ln)” value is on record?
The value was 7.95 ± 0.49.

With “ATAATTATTAAGAGAACATGCAAAATATATATGTTT [TGCATGCA_site503]” as the sequence, how does the “gcPBM binding intensity (ln)” value read?
Its value is 7.68 ± 0.79.

“TTTTAATAAACAAAACGTACACATTATTATTATATA [XGTACX_site335]” was tested. Which “gcPBM binding intensity (ln)” value did it give?
Its value is 7.79 ± 0.14.

For “TTTGTAGTTTGCACATGTACACATTTCAAAATAAAG [XGTACX_site7568]”, which “gcPBM binding intensity (ln)” value is on record?
The value was 8.88 ± 0.11.

Which “gcPBM binding intensity (ln)” value does the source give for TTTTTTTTTTTGTGGGTGCGTTTATAAAAACAGGAA here?
The value was 10.8 ± 0.67.

For “TTTTTTTCTTGTTTTAAATAATATACTGGAAAAAAA [CACACA_negctrl_site585]”, which “gcPBM binding intensity (ln)” value is on record?
Its value is 7.57 ± 0.38.

Which “gcPBM binding intensity (ln)” value does the source give for “AGAGAGAAAGTTATAACATGCAACAATTTTTAGAAC [TGCATGCA_site96]” here?
The value was 8.05 ± 0.83.

“AATATATACATATATTGTACATATAGTTTCTTGCAT [XGTACX_site7871]” was tested. Which “gcPBM binding intensity (ln)” value did it give?
Its value is 7.62 ± 0.59.

With “TTTCCATATTGTGGATGTACGTTTTGAGGTTTTTAC [XGTACX_site3362]” as the sequence, how does the “gcPBM binding intensity (ln)” value read?
The value was 7.8 ± 0.29.

How did the “gcPBM binding intensity (ln)” value turn out when “ATTTATCCAAAAAAATGTACAGGATAATTTGTTCAT [XGTACX_site7737]” was run?
Its value is 7.61 ± 0.53.

Which “gcPBM binding intensity (ln)” value does the source give for “TATTATGCCTTTAATATACACACTAATATTTTTTTG [CACACA_site2045]” here?
The value was 7.79 ± 0.56.

Which “gcPBM binding intensity (ln)” value does the source give for “CATAATACCTATAACACACACAATTATACATAAACT [CACACA_site7506]” here?
The value was 7.82 ± 0.55.

“TATAAAAATTAATATTGTACGTTTTATGAAAATAAA [XGTACX_site8237]” was tested. Which “gcPBM binding intensity (ln)” value did it give?
Its value is 7.71 ± 0.16.

Which “gcPBM binding intensity (ln)” value does the source give for “GGGTTCAATTTAAAGAGTACAAAAAATGTAGGTCAT [XGTACX_site5290]” here?
The value was 8.02 ± 0.7.

How did the “gcPBM binding intensity (ln)” value turn out when “TTTTCATAAAATCATTGTACATTTATCGTATATTAA [XGTACX_site3855]” was run?
Its value is 7.72 ± 0.45.

With “ATATTGTAAGTAAACACACACACATATATATGTATA [CACACA_site8124]” as the sequence, how does the “gcPBM binding intensity (ln)” value read?
The value was 7.72 ± 0.62.

“AAAATATCTTATATATGTACATATTTATATTTATAT [XGTACX_site6027]” was tested. Which “gcPBM binding intensity (ln)” value did it give?
Its value is 7.64 ± 0.42.

With “TTGTTTTTTTTTGGCTGTACGTTCATAAATTTTTTT [XGTACX_site4165]” as the sequence, how does the “gcPBM binding intensity (ln)” value read?
Its value is 8 ± 0.52.

“AAAAAAAAAAAAAAAACACACAGAACAATATATAAA [CACACA_site4698]” was tested. Which “gcPBM binding intensity (ln)” value did it give?
The value was 8.74 ± 0.38.

Which “gcPBM binding intensity (ln)” value does the source give for “TTTTTTATAAAATTTTTTTTTTAAAATATTAAAACT [XGTACX_negctrl_site240]” here?
The value was 7.33 ± 0.45.

For “AAGCTATATATAGGCAGTACTTTGTAAGTGTAGATA [XGTACX_site8365]”, which “gcPBM binding intensity (ln)” value is on record?
The value was 7.89 ± 0.47.

How did the “gcPBM binding intensity (ln)” value turn out when “TTTCTAATTCTTAGTGGTACACAGTTCTGCTGATAT [XGTACX_site2391]” was run?
Its value is 7.67 ± 0.55.

With “ATATGTCACTTGTATACACACATATAGATTTCAATC [CACACA_site7519]” as the sequence, how does the “gcPBM binding intensity (ln)” value read?
The value was 8.05 ± 0.67.

For “TATATGCATATACATACACACATAACACATACGTTT [CACACA_site3832]”, which “gcPBM binding intensity (ln)” value is on record?
Its value is 7.94 ± 0.49.

Which “gcPBM binding intensity (ln)” value does the source give for “TATTTGTTGTGAGTCACACATATATATATATATATA [CACACA_site4240]” here?
Its value is 9.4 ± 0.49.

With “GTTAAAATTGGGGACGCATGTTCCTTTCCTTTTTTT [TGCATGCA_site1002]” as the sequence, how does the “gcPBM binding intensity (ln)” value read?
Its value is 7.68 ± 0.48.

With “AATATATGTATATATTTTTTTTTTTCCCTTACAAAT [GTGCAC_negctrl_site428]” as the sequence, how does the “gcPBM binding intensity (ln)” value read?
The value was 7.36 ± 0.71.

Which “gcPBM binding intensity (ln)” value does the source give for “TTATAAATGTAACGATGTACTTTTAAAAGTTTCCTT [XGTACX_site109]” here?
The value was 7.66 ± 0.16.

How did the “gcPBM binding intensity (ln)” value turn out when “GGAATGGTACATGATACACACACGCACATATATATA [CACACA_site5825]” was run?
Its value is 8.34 ± 0.86.

For “TATATTAAACAATATACACACATTAATGTATACATA [CACACA_site2755]”, which “gcPBM binding intensity (ln)” value is on record?
Its value is 7.68 ± 0.45.

Which “gcPBM binding intensity (ln)” value does the source give for “ATATAATAGTTATATTGTACATAAATTATACACCTT [XGTACX_site628]” here?
Its value is 7.97 ± 0.49.

Which “gcPBM binding intensity (ln)” value does the source give for “ATACGCACACATATATGTACATATTGTATATATATA [XGTACX_site3962]” here?
The value was 8.74 ± 0.34.

How did the “gcPBM binding intensity (ln)” value turn out when “TATAAACACCCATATAAACACACATATAAACCAACA [CACACA_site8790]” was run?
Its value is 8.19 ± 0.099.

Which “gcPBM binding intensity (ln)” value does the source give for “ACAATTTACACTTAAACACACAAAAAAAAATTATAT [CACACA_site2065]” here?
Its value is 7.87 ± 0.54.

Which “gcPBM binding intensity (ln)” value does the source give for “ACATATATATTCATATGTACATATACATACATACAT [XGTACX_site4563]” here?
The value was 8.84 ± 0.4.

With “AAGGTAGAAATATGTTGTACGGTTTGGAGGAAGCAA [XGTACX_site1105]” as the sequence, how does the “gcPBM binding intensity (ln)” value read?
The value was 8.12 ± 0.49.

Which “gcPBM binding intensity (ln)” value does the source give for “GCATCGATCAAACATACACACATGGTTAATAAAAAT [CACACA_site8651]” here?
The value was 7.8 ± 0.59.
